Experimental findings from PubChem BioAssay AID463173 (ICCB-Longwood Screening Facility, Harvard Medical School, 2010) are described below.

The campaign covered roughly 52,000 compounds. About 1,700 (3.3%) were called active. Cut-off read from the data, not from the text of the source: active = survival mostly below about 52% (no sharp cut-off); inactive = mostly above about 56%. This is one part of the list.

This assay has as its system Wild type. Kind of assay: S. aureus survival, RN4220 and DeltatarO strains – OD600, teichoic acid synthesis inhibitors, primary screen (AID 463173). Particulars: S. aureus RN4220 wild type/DeltatarO growth, OD600, 18 h, active compounds read low, screened at 18.75 µg/mL (by protocol).
In the case of `COc1ccc(CCN(Cc2cc3cc(C)ccc3n3nnnc23)C(=O)N(C)C)cc1OC`, the survival was inactive: 103%.

Consider `CCN(Cc1ccccc1)C(=O)CN1C(=O)COc2ccc(S(=O)(=O)N3CCOCC3)cc21`, for which the survival was inactive: 96%.

For `COc1cccc(-c2cc(C(=O)Nc3ccc(OC)cc3OC)no2)c1`, the survival was inactive: 85%.

Consider `Cc1ccc2oc(=O)c(-c3nc(-c4cccs4)no3)cc2c1`, for which the survival was inactive: 94%.

Regarding `COc1ccc(-n2cnc3cc(C(=O)NCCC4=CCCCC4)ccc32)cc1`, the survival is inactive: 83%.

Turning to `COC(=O)c1ccccc1NC(=O)Cc1nc(-c2ccc(OC)cc2)no1`, the survival is inactive: 110%.

For the compound `Cc1nn(CCC(=O)Nc2cccc(C#N)c2)c(C)c1S(=O)(=O)N1CCC(C)CC1`, the survival is inactive: 69%.

On to `CCOCCCNC(=O)CCC(=O)NNc1nc2ccccc2c2nc(C)nn12`, for which the survival is inactive: 80%.

Consider `Cc1nc2nc(SCC(=O)NCCc3ccc(Cl)cc3)nn2c(C)c1Cc1c(F)cccc1Cl`, for which the survival was active: -2%.

As to `Cc1ccc(NC(=O)C2CCCN2S(=O)(=O)c2ccc3c(c2)n(C)c(=O)c(=O)n3C)cc1` (centres undefined), the survival was inactive: 84%.

For `O=C(Nc1cccc(C(=O)OCc2cc(=O)n3ccsc3n2)c1)c1ccc(F)cc1`, the survival is inactive: 123%.

In the case of `COc1ccc(OC)c(NC(=O)CN(c2ccccc2OC)S(=O)(=O)c2ccc(C)cc2)c1`, the survival was inactive: 82%.

Consider `Cc1csc2nc(COC(=O)c3ccc(NC(=O)c4ccccc4Br)cc3)cc(=O)n12`, for which the survival is inactive: 124%.

Consider `Cc1nn(CC(=O)NCc2ccco2)c(=O)c2nn(-c3ccccc3)c(C)c12`, for which the survival was inactive: 90%.

On to `CC(=O)N1CCc2cc(CNS(=O)(=O)c3ccccc3C(F)(F)F)ccc21`, for which the survival was inactive: 66%.

For `CCCOc1ccc(C(=O)Nc2cccc(NC(=O)c3ccc(Cl)cc3Cl)c2)cc1`, the survival was inactive: 92%.

On to `CC(=O)Nc1ccc(NC(=O)c2c(-c3ccccc3)noc2C)cc1`, for which the survival is inactive: 70%.

As to `O=C(O)c1ccc(CSc2nc3cccnc3n2Cc2cccc(F)c2)cc1`, the survival was inactive: 81%.

As to `CCOc1cccc(C2Oc3nc(SC)nnc3-c3ccccc3N2C(C)=O)c1OC` (centres undefined), the survival was inactive: 68%.

Regarding `Cc1cc(C)cc(NC(=O)Cn2c(C)cc(C)c(C#N)c2=O)c1`, the survival is inactive: 72%.

For `O=C(CSc1nc2ccccc2n1Cc1cccc(C(F)(F)F)c1)NCc1ccccc1`, the survival was inactive: 83%.

As to `COC(=O)CC1Oc2ccc(Cl)cc2-n2cc(-c3ccc(C)cc3)nc21` (centres undefined), the survival was inactive: 73%.

Regarding `Nc1ncc(S(=O)(=O)N2CCN(c3ccccc3)CC2)cn1`, the survival is inactive: 129%.

`COc1ccc(Cl)cc1NC(=O)c1oc2ccc(S(=O)(=O)N3CCCCC3)cc2c1C`: the survival was inactive: 76%.

Regarding `COc1ccc(N2CCN(C(=O)c3ccc(CS(=O)c4cccc(C)c4)o3)CC2)cc1` (centres undefined), the survival is inactive: 83%.

On to `Cc1ccc(S(=O)(=O)C(CNC(=O)C(=O)NCCc2ccc(F)cc2)c2cccs2)cc1` (centres undefined), for which the survival is inactive: 80%.

`O=C(CSc1nc2c([nH]c3ccccc32)c(=O)n1-c1ccc(F)cc1)Nc1ccc2c(c1)OCO2`: the survival is inactive: 49%.

On to `COc1cc(NC(=O)CSc2ccc(-c3sc(C)nc3C)nn2)cc(OC)c1`, for which the survival is inactive: 23%.

`CCN1c2ccccc2-c2nc(SCC(=O)Nc3cc(C)c(Cl)cc3OC)ncc2S1(=O)=O`: the survival was inactive: 81%.

Regarding `Oc1c(C(c2cccc(Cl)c2)N2CCOCC2)sc2nc(-c3ccco3)nn12` (centres undefined), the survival was inactive: 91%.

For the compound `c1ccc2c(-n3cccn3)cccc2c1`, the survival is inactive: 119%.

For the compound `O=C(Nc1ccc(F)c(Cl)c1)C1CCN(c2ncccn2)CC1`, the survival is inactive: 82%.

Take `O=C1CC(=O)N(Cc2cccs2)C(=O)N1`: the survival was inactive: 97%.

On to `Cc1ccc(C)c(N2CCN(c3nc4ccccc4n4nnnc34)CC2)c1`, for which the survival was inactive: 89%.

On to `O=C(COc1ccc(F)cc1)NCc1ccc2c(c1)CCN2C(=O)c1ccc(F)cc1`, for which the survival is inactive: 67%.

Regarding `O=S(=O)(c1ccc(S(=O)(=O)N(Cc2cccs2)C2CCCCC2)cc1)N1CCCC1`, the survival was inactive: 97%.

Turning to `COc1ccc(CCNC(=O)c2c3c(nc4ccccc24)C(=O)N(C2CCCCC2)C3)cc1OC`, the survival was inactive: 101%.

In the case of `Cc1cc(-n2c(C)nc3ccccc3c2=O)ccc1NC(=O)c1cccc([N+](=O)[O-])c1C`, the survival is active: -2%.

Take `Cc1cccc(OCC(=O)Nc2ccc(S(=O)(=O)N(Cc3ccccc3)c3ccccc3)cc2)c1`: the survival is inactive: 82%.

For `COCCn1c(=O)[nH]c2cc(C(=O)N3CCN(c4ccc(F)cc4)CC3)ccc2c1=O`, the survival was inactive: 67%.

Regarding `Cc1cc(Br)cc(C)c1OCC(=O)Nc1ccc(S(=O)(=O)Nc2ncccn2)cc1`, the survival is inactive: 63%.

Consider `CCc1nn(CC(=O)NCC(C)c2ccccc2)c(=O)c2cc3c(OC)cccc3n12` (centres undefined), for which the survival is inactive: 89%.

For `COC(=O)c1ccccc1NC(=O)C1CCCN(C(=O)c2cnn(-c3ccc(F)cc3)c2-n2cccc2)C1` (centres undefined), the survival is inactive: 66%.

Take `Cc1oc(-c2ccccc2F)nc1Cn1c(SCc2cccc(Cl)c2)nc2ccncc21`: the survival is inactive: 51%.

Take `N#C/C(=C\c1ccc(-c2ccc(Br)cc2)o1)C(=O)Nc1ccccc1O`: the survival is inactive: 74%.

For `Cc1ccc(-n2ncc3c(N4CCN(Cc5ccccc5)CC4)ncnc32)cc1C`, the survival is inactive: 79%.

Turning to `O=C(NCCc1csc(-c2ccc(C(F)(F)F)cc2)n1)c1ccccc1Cl`, the survival is inactive: 70%.

With `CCOCCc1nn2c(=O)cc(COC(=O)c3ccccc3Br)nc2s1`, the survival is inactive: 76%.

Regarding `CCOC(=O)C1(CCSC)NC(c2cccs2)C2C(=O)N(CC)C(=O)C21` (centres undefined), the survival is inactive: 116%.

In the case of `O=C(Nc1ccccn1)NC12CC3CC(CC(C3)C1)C2`, the survival is inactive: 126%.

As to `C1=C(c2cccs2)OC(c2cccs2)=CC1c1cccs1`, the survival is inactive: 105%.

For the compound `CN(C)c1ccc(CNC(=O)CN2C(=O)c3cccnc3Oc3ccc(Cl)cc32)cc1`, the survival is inactive: 72%.

As for `Cc1oc2ccc(O)c(CN3CCN(Cc4ccccc4)CC3)c2c1C(=O)Nc1ccccc1`, the survival was inactive: 81%.

As to `CCOC(=O)c1cccc(NC(=O)Cn2c(CC(=O)N3CCCC3)nc3ccccc32)c1`, the survival was inactive: 106%.

For the compound `Cc1nn(CC(=O)NCc2cccc(Br)c2)c(=O)c2c1sc1ccccc12`, the survival was inactive: 124%.

Turning to `O=S(=O)(NCCc1nnc2ccc(SCc3ccc(C(F)(F)F)cc3)nn12)c1ccccc1`, the survival was inactive: 74%.

Regarding `Cc1cc(C)c(S(=O)(=O)NCCc2cc3cc(C)c(C)cc3[nH]c2=O)c(C)c1`, the survival was inactive: 63%.

`Cc1ccc(Nc2nc3ccc(C)cc3nc2-n2nc(C)cc2C)c(C)c1`: the survival is inactive: 80%.

As to `COc1ccc(NC(=O)CSc2nnc(-c3ccc(OC)cc3)s2)cc1`, the survival was inactive: 66%.

In the case of `COc1cccc(C(c2sc3nc(-c4ccco4)nn3c2O)N2CCOCC2)c1` (centres undefined), the survival was inactive: 71%.

Regarding `O=C(C1COc2ccccc2O1)N1CCN(c2nc3c(F)cccc3s2)CC1` (centres undefined), the survival is inactive: 90%.

`COc1ccc(N(CC(=O)NCc2ccccc2Cl)S(=O)(=O)c2c(C)[nH]c(=O)[nH]c2=O)cc1`: the survival is inactive: 79%.

Regarding `COCCNC(=O)C1CCC(CNS(=O)(=O)c2ccc3c(c2)CC(C)N3C(C)=O)CC1` (centres undefined), the survival was inactive: 97%.

Turning to `CC(C)C(=O)Nc1nnc(S(=O)(=O)N2CCCCCC2)s1`, the survival is inactive: 87%.

With `COc1cc(C(CC(=O)Nc2ccc(Br)cn2)N2Cc3ccccc3C2=O)cc(OC)c1OC` (centres undefined), the survival was inactive: 70%.

For the compound `O=S1(=O)CCC(NC(=S)SCCOc2ccccc2OCCO)C1` (centres undefined), the survival was inactive: 110%.

Turning to `Cc1c(C(=O)Nc2cccc(F)c2)oc2c1-c1nn(Cc3c(F)cccc3Cl)cc1CC2`, the survival is inactive: 120%.

On to `CCCC1(C(=O)OC)NC(c2cc(OC)c(OC)c(OC)c2)C2C(=O)N(c3ccc(C)cc3)C(=O)C21` (centres undefined), for which the survival was inactive: 105%.

For `C=CCc1c(C)nc(SC)nc1Nc1ccc(C(=O)O)cc1`, the survival is inactive: 111%.

With `Cc1oc2c(c1C(=O)Nc1ccccc1Br)C1=NCCN1C=N2`, the survival is inactive: 84%.

As for `Cc1ccc(CNC(=O)c2c(O)nc3ccccn3c2=O)cc1`, the survival is inactive: 113%.

On to `Cc1ccc(Cn2c(=O)n(CC3CCC(C(=O)N4CCC(C)CC4)CC3)c(=O)c3sccc32)cc1` (centres undefined), for which the survival is inactive: 66%.

As for `Cc1ccc(N(Cc2cccs2)C(=O)Nc2cccc(Cl)c2)cc1`, the survival was inactive: 84%.

Take `Cc1c(Cl)cccc1NC(=O)NCc1c(-n2cccc2)sc2c1CCCC2`: the survival is inactive: 88%.

Regarding `O=C(NCCc1cccs1)c1ccc(Cn2c(SCc3ccccc3)nc3cccnc32)cc1`, the survival was inactive: 80%.

Take `COc1cccc(CNC(=O)c2sc3nc4n(c(=O)c3c2C)CCC4)c1`: the survival was inactive: 115%.

Take `CCOC(=O)c1ccccc1NC(=O)c1cc2c(s1)-c1c(C)cccc1OC2`: the survival was inactive: 108%.

In the case of `CCOc1ccccc1NC(=O)Cn1cnc2c1c(=O)n(C)c(=O)n2C`, the survival is inactive: 72%.

Consider `COc1ccc(N2CC3=C(C2=O)C(c2ccc(O)c(OC)c2)NC(=O)N3C)cc1` (centres undefined), for which the survival was inactive: 71%.

Regarding `CC(C)OCCCNc1sc(S(=O)(=O)c2ccccc2)nc1S(=O)(=O)c1ccc(Cl)cc1`, the survival was inactive: 83%.

In the case of `CCOc1ccccc1NC(=O)CSc1nc2c(oc3ccccc32)c(=O)n1C(C)C`, the survival is inactive: 83%.

On to `COCCCNC(=O)c1cc(-c2ccc(OC)cc2)nc2n[nH]c(-c3ccc(Cl)cc3)c12`, for which the survival was inactive: 75%.

`Cc1c(C(=O)Nc2ccc(F)cc2F)oc2ccc3c(c12)C(=O)CC(C)(C)O3`: the survival was inactive: 98%.

Take `COc1ccc(CCNC(=O)c2cnc3ccc(C)cn3c2=O)cc1OC`: the survival is inactive: 90%.

Take `Cn1ncc2c(NCc3ccc(Cl)cc3)ncnc21`: the survival was inactive: 75%.

For the compound `CCOc1ccc(NC(=O)CSc2ncn[nH]2)cc1`, the survival was inactive: 86%.

Consider `Cc1nc(Nc2nc3ccccc3o2)nc(-c2ccc(Cl)cc2)c1C#N`, for which the survival is inactive: 105%.

As for `Cc1ccsc1CN(Cc1ccco1)C(=O)c1ccc(Cl)cc1`, the survival was inactive: 65%.

With `Nc1cc[n+](CC(O)CO)cc1` (centres undefined), the survival was inactive: 98%.
